Values of other authors as cited in paper PMC5742115, “Pharmacophore Modeling and in Silico/in Vitro Screening for Human Cytochrome P450 11B1 and Cytochrome P450 11B2 Inhibitors” (Frontiers in Chemistry, 2017).

Key:
CYP11B1 = conditions: reported activity, supplementary Table 1; ref Voets et al., 2006; cited from earlier work
CYP11B2 = conditions: reported activity, supplementary Table 1; ref Voets et al., 2006; cited from earlier work

Q: For `CC1=C(c2cccnc2)CCc2ccccc21` [CHEMBL206283], which IC50 (CYP11B1) is on record?
A: 1270 nM

Q: What about the IC50 (CYP11B2) of the same compound?
A: 7 nM

Q: With `COc1ccc2c(c1)C=C(c1cccnc1)C2` [CHEMBL206300] as the compound, how does the IC50 (CYP11B1) read?
A: 5680 nM

Q: And the IC50 (CYP11B2)?
A: 11 nM

Q: Which IC50 (CYP11B1) does the source give for `CC1CC(c2cccnc2)=Cc2ccccc21` (centres unmarked) [CHEMBL206070] here?
A: 1290 nM

Q: What about the IC50 (CYP11B2) of the same compound?
A: 13 nM

Q: Which results are given for `C1=C(c2cccnc2)Cc2ccccc21` [CHEMBL205782]?
A: IC50 (CYP11B1): 2390 nM; IC50 (CYP11B2): 13 nM

Q: Which IC50 (CYP11B1) does the source give for `CC1Cc2ccccc2C=C1c1cccnc1` (centres unmarked) [CHEMBL206550] here?
A: 503 nM

Q: What about the IC50 (CYP11B2) of the same compound?
A: 5 nM

Q: For `C1=C(c2cccnc2)CCc2ccccc21` [CHEMBL205881], which IC50 (CYP11B1) is on record?
A: 1730 nM

Q: And the IC50 (CYP11B2)?
A: 7 nM

Q: For `CCC1=C(c2cccnc2)CCc2ccccc21` [CHEMBL205503], which IC50 (CYP11B1) is on record?
A: 2120 nM

Q: And the IC50 (CYP11B2)?
A: 30 nM
